# Assay results: a collection of fitness landscapes (doi:10.1126/science.1257360)
# Some of the results follow.
# B1: PhoQ; a variant is named by its letters at X, in order, P23837 (parent)
# chain: MKKLLRLFFPLSLRVRFLLATAAVVLVLSLAYGMVALIGYSVSFDKTTFRLLRGESNLFYTLAKWENNKLHVELPENIDKQSPTMTLIYDENGQLLWAQRDVPWLMKMIQPDWLKSNGFHEIEADVNDTSLLLSGDHSIQQQLQEVREDDDDAEMTHSVAVNVYPATSRMPKLTIVVVDTIPVELKSSYMVWSWFIYVLSANLLLVIPLLWVAAWWSLRPIEALAKEVRELEEHNRELLNPATTRELTSLVRNLNRLLKSERERYDKYRTTLTDLTHSLKTPLXXLQXXLRSLRSEKMSVSDAEPVMLEQISRISQQIGYYLHRASMRGGTLLSRELHPVAPLLDNLTSALNKVYQRKGVNISLDISPEISFVGEQNDFVEVMGNVLDNACKYCLEFVEISARQTDEHLYIVVEDDGPGIPLSKREVIFDRGQRVDTLRPGQGVGLAVAREITEQYEGKIVAGESMLGGARMEVIFGRQHSAPKDE
# Variants of: B1
# Assay: enrichment ratio after two sorts for PhoP signalling (ratio (wild type AVST 3.29)); higher = more functional
# Conditions: with PhoP (E. coli)
row,Variant,enrichment ratio
1,YWRI,≤ 0.25
2,DGHS,≤ 0.25
3,GAYN,≤ 0.25
4,LHSY,≤ 0.25
5,IGCN,≤ 0.25
6,DQTM,≤ 0.25
7,LQDM,≤ 0.25
8,GGPY,≤ 0.25
9,SVQV,≤ 0.25
10,PMMM,≤ 0.25
11,YQQR,≤ 0.25
12,IYRK,≤ 0.25
13,TFRA,≤ 0.25
14,FLMI,≤ 0.25
15,RRNF,≤ 0.25
16,ASSF,11.3
17,RFKP,≤ 0.25
18,TVQQ,12.6
19,SPSK,≤ 0.25
20,RYDG,≤ 0.25
21,WKMS,≤ 0.25
22,VFHL,≤ 0.25
23,TGQQ,≤ 0.25
24,GQYM,≤ 0.25

row,Variant,enrichment ratio
1,MPDF,≤ 0.25
2,WSYI,≤ 0.25
3,PDWP,≤ 0.25
4,YMEI,≤ 0.25
5,FNSC,≤ 0.25
6,NYTV,≤ 0.25
7,SWWF,≤ 0.25
8,FQEH,≤ 0.25
9,HIHM,≤ 0.25
10,CTTT,≤ 0.25
11,FWDC,≤ 0.25
12,GMRI,≤ 0.25
13,HKPL,≤ 0.25
14,NGVW,≤ 0.25
15,TYFA,≤ 0.25
16,HYEW,≤ 0.25
17,GDHP,1.16
18,MGMM,37.6
19,PSIC,≤ 0.25
20,YQFY,≤ 0.25
21,LFSE,≤ 0.25
22,HRDH,≤ 0.25
23,DAYI,≤ 0.25
24,SDDF,≤ 0.25

row,Variant,enrichment ratio
1,ATIF,5.34
2,PSFC,≤ 0.25
3,YDVN,≤ 0.25
4,IMQK,≤ 0.25
5,FLSK,≤ 0.25
6,TMGT,11
7,LFWI,≤ 0.25
8,QDDG,≤ 0.25
9,YHYP,≤ 0.25
10,FSFV,≤ 0.25
11,KKHD,≤ 0.25
12,RQYF,≤ 0.25
13,SAGA,≤ 0.25
14,FNWE,≤ 0.25
15,TVTA,19.9
16,KTNQ,≤ 0.25
17,MHYR,≤ 0.25
18,WIKW,≤ 0.25
19,YDTV,≤ 0.25
20,RHQA,≤ 0.25
21,TIQR,16
22,EVVF,≤ 0.25
23,VQRA,≤ 0.25
24,RQPW,≤ 0.25

row,Variant,enrichment ratio
1,SEVF,8.61
2,DNPL,≤ 0.25
3,EKSW,≤ 0.25
4,HCDI,≤ 0.25
5,YPEW,≤ 0.25
6,AASV,6.86
7,HSQE,≤ 0.25
8,APVA,≤ 0.25
9,LLYC,≤ 0.25
10,QMRD,≤ 0.25
11,MNNK,≤ 0.25
12,TRYP,≤ 0.25
13,KNMY,≤ 0.25
14,GQWC,≤ 0.25
15,RASW,≤ 0.25
16,VDDW,≤ 0.25
17,YMIS,≤ 0.25
18,NDCL,≤ 0.25
19,QEDL,≤ 0.25
20,DAKD,≤ 0.25
21,NNMM,17.4
22,VSFI,≤ 0.25
23,YQDN,≤ 0.25
24,PFEH,≤ 0.25

row,Variant,enrichment ratio
1,YHHT,≤ 0.25
2,FEFI,≤ 0.25
3,TLSV,16.7
4,MPIW,≤ 0.25
5,VIHG,≤ 0.25
6,HVDW,≤ 0.25
7,GLVY,≤ 0.25
8,DCWF,≤ 0.25
9,NLGA,≤ 0.25
10,ERQS,≤ 0.25
11,VIRY,≤ 0.25
12,QIHW,≤ 0.25
13,HEQV,25.5
14,DAVN,≤ 0.25
15,GGLG,3.59
16,LWSC,≤ 0.25
17,FVSC,≤ 0.25
18,SRGT,≤ 0.25
19,AQSA,8.52
20,YMIT,≤ 0.25
21,KTRL,≤ 0.25
22,LSAW,≤ 0.25
23,DYLF,≤ 0.25
24,NQVS,≤ 0.25

row,Variant,enrichment ratio
1,MGFL,6.97
2,LFAT,≤ 0.25
3,DTGW,≤ 0.25
4,LNLG,≤ 0.25
5,EVHF,≤ 0.25
6,SFKV,≤ 0.25
7,HFIS,≤ 0.25
8,EMPK,≤ 0.25
9,YMMG,0.304
10,GKAM,≤ 0.25
11,SRIP,≤ 0.25
12,HWVV,≤ 0.25
13,GEGM,≤ 0.25
14,DDIM,≤ 0.25
15,VNDM,≤ 0.25
16,TDPK,≤ 0.25
17,KYIT,≤ 0.25
18,KVGI,≤ 0.25
19,FRTV,≤ 0.25
20,PMQP,≤ 0.25
21,ISNS,≤ 0.25
22,NKIN,≤ 0.25
23,YNVW,≤ 0.25
24,YPAQ,≤ 0.25

row,Variant,enrichment ratio
1,MAGK,≤ 0.25
2,RQRE,≤ 0.25
3,HENV,≤ 0.25
4,TYQT,≤ 0.25
5,EDVM,≤ 0.25
6,LDCV,≤ 0.25
7,GMWD,≤ 0.25
8,CSYR,≤ 0.25
9,PCEP,≤ 0.25
10,VTCT,≤ 0.25
11,PRWF,≤ 0.25
12,FKSR,≤ 0.25
13,MMGI,≤ 0.25
14,HMGD,≤ 0.25
15,PCVP,≤ 0.25
16,AQIG,5.21
17,VITT,≤ 0.25
18,HGAL,≤ 0.25
19,NTLC,≤ 0.25
20,EIRI,≤ 0.25
21,TYAA,0.257
22,ISWA,≤ 0.25
23,PNYM,≤ 0.25
24,WDPV,≤ 0.25

row,Variant,enrichment ratio
1,YLEW,≤ 0.25
2,SVAC,3.64
3,HECL,≤ 0.25
4,CFLQ,≤ 0.25
5,RFFL,≤ 0.25
6,SLMS,0.7
7,MCKA,≤ 0.25
8,RVLY,≤ 0.25
9,FLHH,≤ 0.25
10,LKGP,≤ 0.25
11,RDNI,≤ 0.25
12,TREY,≤ 0.25
13,QYCP,≤ 0.25
14,ELHG,≤ 0.25
15,RHYK,≤ 0.25
16,GSWR,≤ 0.25
17,PLNG,≤ 0.25
18,YFGK,≤ 0.25
19,AFTG,5.35
20,MRGM,≤ 0.25
21,GWAM,≤ 0.25
22,YAKH,≤ 0.25
23,WKMW,≤ 0.25
24,YTCL,5.77

row,Variant,enrichment ratio
1,PWPD,≤ 0.25
2,NWLQ,≤ 0.25
3,PEMA,≤ 0.25
4,DLRT,≤ 0.25
5,LTSK,≤ 0.25
6,LEKP,≤ 0.25
7,NEWC,≤ 0.25
8,YHEC,≤ 0.25
9,KEVF,≤ 0.25
10,VKQV,≤ 0.25
11,NMGY,≤ 0.25
12,FAKK,≤ 0.25
13,TMST,6.57
14,WKVL,≤ 0.25
15,HWCN,≤ 0.25
16,DNQS,≤ 0.25
17,PFWP,≤ 0.25
18,KMLA,≤ 0.25
19,LKAG,≤ 0.25
20,SCAM,11.2
21,VAYD,≤ 0.25
22,TEPM,≤ 0.25
23,KKIW,≤ 0.25
24,ETEI,≤ 0.25

row,Variant,enrichment ratio
1,GHFV,≤ 0.25
2,VSDI,≤ 0.25
3,NIWD,≤ 0.25
4,DKWI,≤ 0.25
5,YAHN,≤ 0.25
6,LVWI,≤ 0.25
7,QMEC,≤ 0.25
8,MDQG,≤ 0.25
9,DGLP,≤ 0.25
10,MDWW,≤ 0.25
11,RSTE,≤ 0.25
12,TWNW,≤ 0.25
13,IGYA,≤ 0.25
14,PIMP,≤ 0.25
15,TCCH,7.95
16,TETP,≤ 0.25
17,LHPP,≤ 0.25
18,KYYT,≤ 0.25
19,SIHH,≤ 0.25
20,WGWK,≤ 0.25
21,YWFR,≤ 0.25
22,NNAH,≤ 0.25
23,AYIG,3.45
24,QHNP,≤ 0.25

row,Variant,enrichment ratio
1,SYIS,≤ 0.25
2,NLHH,≤ 0.25
3,MEQL,≤ 0.25
4,ITLE,1.41
5,MIKS,≤ 0.25
6,PIIW,0.353
7,KNGM,≤ 0.25
8,RQFA,≤ 0.25
9,VPGN,≤ 0.25
10,RFWG,≤ 0.25
11,LQSI,≤ 0.25
12,SWKN,≤ 0.25
13,SHLT,≤ 0.25
14,DGQN,≤ 0.25
15,GDSY,≤ 0.25
16,HQQT,≤ 0.25
17,FWYG,≤ 0.25
18,NPTM,≤ 0.25
19,RSHT,≤ 0.25
20,YHLE,≤ 0.25
21,ASTE,6.22
22,DTTW,≤ 0.25
23,SDKC,≤ 0.25
24,QPCR,≤ 0.25

row,Variant,enrichment ratio
1,RHKQ,≤ 0.25
2,DHIT,≤ 0.25
3,RGKA,≤ 0.25
4,PSIL,≤ 0.25
5,EDGM,≤ 0.25
6,RVAH,≤ 0.25
7,AIPW,≤ 0.25
8,PMRT,≤ 0.25
9,SSRR,≤ 0.25
10,KRRG,≤ 0.25
11,SGNR,≤ 0.25
12,TCYN,3.25
13,DNDR,≤ 0.25
14,AMLI,4.3
15,NDSR,≤ 0.25
16,YNIQ,≤ 0.25
17,FFSQ,≤ 0.25
18,SCHE,≤ 0.25
19,SYES,≤ 0.25
20,YSEH,≤ 0.25
21,QCDM,≤ 0.25
22,RDSE,≤ 0.25
23,AVRK,≤ 0.25
24,RNWC,≤ 0.25

row,Variant,enrichment ratio
1,KADI,≤ 0.25
2,DKPP,≤ 0.25
3,YAHL,≤ 0.25
4,GCTH,≤ 0.25
5,WISW,≤ 0.25
6,TTGI,9.44
7,YRCT,≤ 0.25
8,FEYA,≤ 0.25
9,TWHT,≤ 0.25
10,SFNS,≤ 0.25
11,INCV,≤ 0.25
12,YWYM,≤ 0.25
13,TGKY,≤ 0.25
14,FSPV,≤ 0.25
15,HIRQ,≤ 0.25
16,FTIG,≤ 0.25
17,PYEG,≤ 0.25
18,AEQP,≤ 0.25
